# Test results as given in publication PMC4336329 (PLoS ONE, 2015).
# Out of some 310,000 compounds screened, about 2,200 (0.71%) showed an effect of 50% or more. The effect is printed as a negative number. Some of the results follow.
# Target: human ether-à-go-go-related gene (hERG) potassium channel (human, UniProt Q12809)
# Test: primary screen, population patch clamp on CHO cells stably expressing hERG
# Chain of human ether-à-go-go-related gene (hERG) potassium channel (Q12809 whole entry, looked up): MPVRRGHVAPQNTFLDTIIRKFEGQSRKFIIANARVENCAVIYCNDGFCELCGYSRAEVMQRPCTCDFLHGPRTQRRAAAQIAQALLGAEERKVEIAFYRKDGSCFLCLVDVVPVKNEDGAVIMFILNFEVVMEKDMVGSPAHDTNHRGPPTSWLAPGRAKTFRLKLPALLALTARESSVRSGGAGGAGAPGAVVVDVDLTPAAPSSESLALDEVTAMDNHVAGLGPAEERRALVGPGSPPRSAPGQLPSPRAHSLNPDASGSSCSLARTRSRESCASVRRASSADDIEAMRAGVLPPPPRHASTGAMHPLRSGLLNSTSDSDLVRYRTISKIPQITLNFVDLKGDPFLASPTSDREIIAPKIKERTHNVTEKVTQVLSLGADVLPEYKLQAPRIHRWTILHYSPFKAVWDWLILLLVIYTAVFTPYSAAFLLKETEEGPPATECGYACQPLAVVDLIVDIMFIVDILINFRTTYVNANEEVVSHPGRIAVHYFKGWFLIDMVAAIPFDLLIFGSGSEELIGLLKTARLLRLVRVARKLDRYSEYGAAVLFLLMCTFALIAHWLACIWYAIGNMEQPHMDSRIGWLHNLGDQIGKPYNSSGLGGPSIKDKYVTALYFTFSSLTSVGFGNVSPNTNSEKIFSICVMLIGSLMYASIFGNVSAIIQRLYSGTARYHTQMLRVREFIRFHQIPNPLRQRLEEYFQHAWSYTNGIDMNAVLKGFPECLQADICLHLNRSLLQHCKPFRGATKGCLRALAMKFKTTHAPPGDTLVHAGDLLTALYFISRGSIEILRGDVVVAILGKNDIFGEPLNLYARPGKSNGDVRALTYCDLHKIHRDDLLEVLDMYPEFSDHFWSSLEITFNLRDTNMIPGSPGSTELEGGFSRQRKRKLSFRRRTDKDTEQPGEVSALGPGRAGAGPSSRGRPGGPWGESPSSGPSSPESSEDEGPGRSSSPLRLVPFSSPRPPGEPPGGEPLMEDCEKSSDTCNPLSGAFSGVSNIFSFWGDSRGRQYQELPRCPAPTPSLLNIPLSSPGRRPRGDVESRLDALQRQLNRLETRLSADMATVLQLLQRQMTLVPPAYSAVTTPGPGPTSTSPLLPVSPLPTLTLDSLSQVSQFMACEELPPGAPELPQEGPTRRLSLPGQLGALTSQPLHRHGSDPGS
row,SMILES,"hERG current change (%, negative = inhibition) at 1uM [%]"
1,CCCCn1c(N)c(N(CCOC)C(=O)C2CCN(S(=O)(=O)c3ccc(C)c(C)c3)CC2)c(=O)[nH]c1=O,-2.45
2,O=C(O)CNC(=O)/C(=C\c1ccco1)NC(=O)c1ccco1,14.4
3,CC/C=C\[C@H](O)[C@H](O)C1=C(C)C(=O)[C@]2(O1)C(=O)N[C@@](OC)(C(=O)c1ccccc1)C2O (stereo partly shown),6.73
4,COc1ccc(-c2noc(=O)n2Cc2ccc(F)cc2Cl)cc1,9.8
5,CCc1ccc(Nc2n[n+](-c3ccccc3)c(-c3ccc(C(=O)O)cc3)s2)cc1.[Cl-],10.4
6,Cc1ccc(NC(=O)COC(=O)C2CCC2)cc1S(=O)(=O)N1CCCCC1,9.55
7,CC(=O)NCCc1c[nH]c2ccc(O)cc12,17.9
8,COc1ccc(CN2CCC(N3CC(C)OC(C)C3)CC2)c(OC)c1OC.O=C(O)C(=O)O (stereo not shown),2.62
9,CS(=O)(=O)c1cccc(C(=O)Nc2ccccc2Cc2ccccc2)c1,6.78
10,N#CC(C(N)=O)=C1CCCCC1,3.82
11,Cc1ccc(-n2cc(CNC(C)Cn3cncn3)c(-c3ccc(F)cc3)n2)cc1 (stereo not shown),-16.9
12,Cc1nnc(N2CCN(Cc3ccccc3)CC2)[nH]c1=O,11.9
13,CC(=O)C1=C(C)OC2(O)c3ccccc3C(=O)C12O (stereo not shown),11.9
14,c1ccc(Cn2nnc3c(N4CCC5(CC4)OCCO5)ncnc32)cc1,7.37
15,COCCn1nnnc1C(c1cc2cc(C)ccc2[nH]c1=O)N1CCc2ccccc21 (stereo not shown),9.19
16,CCC(CC)C(=O)Nc1cc(C)c2c(=O)oc3ccccc3c2n1,2.02
17,O=C(CNS(=O)(=O)c1ccc(Br)s1)N1CCC2(CC1)OCCO2,2.52
18,Cc1ccccc1OCCNc1cc(N2CC(C)NC(C)C2)ccc1[N+](=O)[O-] (stereo not shown),12.7
19,COCCSc1ccccc1C(=O)Nc1nncs1,12
20,O=C(CCc1ccccc1)Nc1cccc(-c2nnc(-c3ccco3)o2)c1,7.31
21,Cc1cc(Cl)ccc1NC(=O)COC(=O)CCNS(=O)(=O)c1ccccc1,1.75
22,Cc1noc(C(=O)Nc2ccc(F)cc2F)c1Cl,11.4
23,CC(=O)NS(=O)(=O)c1ccc(NC(=O)c2ccc(Cl)cc2[N+](=O)[O-])cc1,8.48
24,CCc1ccc(NC(=O)Cn2cnc3c(=O)n(C)c(=O)n(C)c32)cc1,10.9
25,COc1ccc(S(=O)(=O)N2CCOCC2)cc1NC(=O)COC(=O)C1COc2ccccc2O1 (stereo not shown),14.1
26,CCOc1nc2ccccc2nc1NS(=O)(=O)c1ccccc1,0.566
27,Cc1cccc(C)c1OCCN1CCOCC1.O=C(O)C(=O)O,12.2
28,CN(C)CCCn1c(=O)n(CCc2ccccc2)c(=O)c2c3c(sc21)CCCCC3,2.17

row,SMILES,"hERG current change (%, negative = inhibition) at 1uM [%]"
1,COC(=O)c1cc(-c2ccc(OC)c(OC)c2)c2c(=O)[nH]c(=O)n(C)c2n1,14.8
2,C#CCSc1nc(-c2cccs2)ccc1C#N,-4.73
3,Cc1ccc([N+](=O)[O-])cc1NC(=O)/C=C/C(=O)O,-2.92
4,CCOc1ccccc1NC(=O)NC1CCCc2ccccc21 (stereo not shown),12.7
5,O=C(Cn1ccc(C(F)(F)F)n1)Nc1ccc(S(=O)(=O)NCc2ccco2)cc1,11.2
6,CCCCN(C(=O)c1cc(S(=O)(=O)N2CCCCCC2)ccc1OC)c1c(N)n(CCC)c(=O)[nH]c1=O,9.07
7,Cn1c(=O)c2c(nc(CN3CCN(c4ccccc4)CC3)n2Cc2c(F)cccc2Cl)n(C)c1=O,0.511
8,COC(=O)C1=C(C(=O)OC)C(c2ccccc2O)c2sc(=O)[nH]c2S1 (stereo not shown),-1.06
9,CCc1ccccc1N(CC(=O)NCc1ccc(OC)cc1)C(=O)CCC(=O)Nc1ccccn1,14.2
10,CC1CCCC(NC(=S)NC(=O)c2cncc(Br)c2)C1C (stereo not shown),19.7
11,COc1ccccc1-c1nc(C#N)c(N2CC(C)CC(C)C2)o1 (stereo not shown),6.95
12,CN(C)CC#CCn1c2ccccc2c2ccccc21.Cl,10.1
13,O=C(COc1ccccc1)Nc1nnc(S(=O)(=O)Nc2ccccc2)s1,11.3
14,CCCc1nnc(NC(=O)CS(=O)(=O)c2ccccc2)s1,10.2
15,C[C@]12CCC3C(CC[C@H]4CCCC[C@]34C)C1CC[C@@]2(O)CNCCO (stereo partly shown),10.1
16,Cc1cc(C)c(S(=O)(=O)N2C=CC(C(F)(F)F)=NCC2)c(C)c1,17.3
17,O=C(Nc1nnc(CCc2ccccc2)s1)c1ccco1,8.21
18,C=CCN1C(=O)OC2(CCCCC2)C1(C)O (stereo not shown),4.4
19,CCOc1cc(/C=C(\C#N)C(=O)Nc2cccc(C(=O)O)c2)ccc1OCc1ccccc1Cl,14.6
20,Cc1ccc(C)c(N2CCN(C(=O)CCS(=O)(=O)c3ccc4c(c3)CCN4C(=O)C3CC3)CC2)c1,7.6
21,Cc1ccc(NC(=O)C2=CC=CN3CCS(=O)(=O)N=C23)cc1,14.2
22,CC1CCCN(C(=O)Cc2cn(Cc3cccc(Cl)c3)c3ccccc23)C1 (stereo not shown),1.97
23,CCN1CCCC1CNC(=O)C(=O)Nc1ccccc1 (stereo not shown),10.8
24,Cn1nc(C(=O)NNC(=O)C(CCC(N)=O)NS(=O)(=O)c2ccc(Cl)cc2)c2ccccc2c1=O (stereo not shown),6.9
25,Cc1cc(C)c(C(=O)C(C)OC(=O)Cc2n[nH]c(=O)c3ccccc23)cc1C (stereo not shown),5.87
26,CCn1c(SCC(=O)N/N=C/C=C/c2ccco2)nnc1-c1ccc(OC)cc1,0.386
27,C=CCN(c1ccccc1)S(=O)(=O)c1cccc(C(=O)NC2CCN(Cc3ccccc3)CC2)c1,-16.6
